# Data reported in article PMC6919601, “Identification of Plasmodium dipeptidyl aminopeptidase allosteric inhibitors by high throughput screening” (PLoS ONE, 2019).
# Where “and” joins values, the source holds several entries; their conditions need not be identical. Equal entries are not always repeated. The whole screen tested about 110,000 compounds, of which about 230 (0.21%) showed an effect of 50% or more. Some of the results follow.
# Target: DPAP1 (Plasmodium falciparum, UniProt Q8IIJ9)
# Test: primary screen, percent inhibition; read by cleavage of a fluorogenic dipeptide substrate; higher = more effect of the substance
# Design: species or system P. falciparum D10 trophozoite lysates; single well
# 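Further: 30 min substrate incubation versus DMSO and 10 µM JCP410 controls.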
# Sequence of DPAP1 (Q8IIJ9 whole entry, looked up): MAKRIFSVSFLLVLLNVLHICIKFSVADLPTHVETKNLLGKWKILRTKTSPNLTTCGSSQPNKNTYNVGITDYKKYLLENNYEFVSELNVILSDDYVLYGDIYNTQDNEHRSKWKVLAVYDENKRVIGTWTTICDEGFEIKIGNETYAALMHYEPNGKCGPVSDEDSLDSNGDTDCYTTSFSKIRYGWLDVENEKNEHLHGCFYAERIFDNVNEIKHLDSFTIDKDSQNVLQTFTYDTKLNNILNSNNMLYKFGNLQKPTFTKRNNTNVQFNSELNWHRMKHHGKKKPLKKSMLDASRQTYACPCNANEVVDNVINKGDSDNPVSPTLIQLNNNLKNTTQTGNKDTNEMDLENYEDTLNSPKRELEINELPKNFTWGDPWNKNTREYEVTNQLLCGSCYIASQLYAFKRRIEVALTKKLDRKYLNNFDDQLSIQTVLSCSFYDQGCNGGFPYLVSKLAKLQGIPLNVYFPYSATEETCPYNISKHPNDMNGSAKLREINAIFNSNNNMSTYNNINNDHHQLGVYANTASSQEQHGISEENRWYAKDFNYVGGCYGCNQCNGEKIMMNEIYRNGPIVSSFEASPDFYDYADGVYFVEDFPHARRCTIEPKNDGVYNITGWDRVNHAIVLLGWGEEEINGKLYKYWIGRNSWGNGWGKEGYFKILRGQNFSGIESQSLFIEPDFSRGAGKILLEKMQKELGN
row,Compound,% Inhibition @ 10 uM
1,COc1ccc(CON2C(=O)c3ccccc3C2=O)cc1Cl,-5.28%
2,Cc1ccc(C(=O)Nc2cccc3c2CCCC3)cc1,2.65%
3,CCCCN(C(=O)c1ccccc1)C1=CC2CCC(C1)N2C (stereo not shown),0.708%
4,Cc1ccccc1-c1nc(CS(=O)CC(=O)N2CCCCC2)c(C)o1 (stereo not shown),-2.85%
5,Cc1cccc2c[nH]nc12,0.0198%
6,Cc1nn(-c2ccccc2)c(-n2cccc2)c1C(=O)N1CCC(C(=O)NCc2ccc(F)cc2)CC1,1.8%
7,Oc1nc2cc3nc(O)c(O)nc3cc2[nH]1,2.25%
8,Cc1ccc2ncc(S(=O)(=O)c3ccccc3)c(N3CCN(C)CC3)c2c1,0.54%
9,Cc1cc(O)c(C2=NCCSC(c3ccc4c(c3)OCO4)C2)c(=O)o1 (stereo not shown),-5.28%
10,C=CCn1c(SCC(=O)N2CCN(CCO)CC2)nc2sc3c(c2c1=O)CCC3,-3.46%
11,CCCCOC(=O)c1c[nH]nc1[N+](=O)[O-],-4.31%
12,CS(=O)(=O)N(CC(=O)Nc1ccccc1)c1ccc(Oc2ccccc2)cc1,-3.39%
13,O=C(COc1ccc(F)cc1)NCCN1CCCC1,-6.05%
14,Cc1ccc(-c2noc(CNC(=O)C(C)(C)Oc3ccc(Cl)cc3)n2)cc1,-4.82%
15,C=C(Br)Cn1c(-c2cccs2)nc2ccccc21,-2.19%
16,CC1CCN(C(=O)c2nc(-c3ccc(Cl)cc3)n3c2CCCCC3)CC1,0.928%
17,O=C(Nc1ccc(NC(=O)c2cccs2)cc1)c1ccc(Br)o1,-2.88%
18,CC1(C)CC(=O)C2=C(C1)OC(N)=C(C#N)C2(C)C,0.467%
19,CCCCOc1nn(-c2ccc3cc(-c4ccccc4)c(=O)oc3c2)nc1C,3.01%
20,O=C(NC(C(=O)c1ccccc1)N1CCCCC1)c1ccccc1 (stereo not shown),-4.06%
21,Cc1c(CC(=O)NCc2ccco2)c(=O)oc2cc(O)ccc12,0.895%
22,C=CCNC(=O)COc1ccc(C(C)(C)C)cc1Br,4.11%
23,O=C1CC(N2CCN(Cc3ccc4c(c3)OCO4)CC2)C(=O)N1c1ccc(Cl)cc1 (stereo not shown),3.21%
24,COc1cc(-c2c(C#N)c(N)nc3[nH]c(=S)[nH]c(=O)c23)ccc1O,4.42%
25,COc1cccc(C2OC3(C(=O)c4ccccc4C3=O)C3C(=O)N(c4ccc(C)cc4)C(=O)C23)c1 (stereo not shown),-0.28%

row,Compound,% Inhibition @ 10 uM
1,CCCn1c2ccccc2n2c(C(C)=O)c(-c3ccccc3)nc12,-7.5%
2,Cc1nc2ccccn2c1C(=O)NCC(C)C,-1.64%
3,CCOC(=O)N1CCN(C(=O)CSc2nc(O)c3cnn(-c4ccc(F)cc4)c3n2)CC1,6.57%
4,COc1cc(S(=O)(=O)NCc2ccccn2)c(OC)cc1Cl,1.74%
5,O=C1C2CCCCN2C(=O)N1CCCN1CCN(c2ccc(F)cc2)CC1 (stereo not shown),-3.65%
6,CC(=O)c1ccc(N2Cc3ccc(Br)cc3C2)cc1,-1.85%
7,Cc1cc(Cl)ccc1OCCCC(=O)Nc1ccccc1F,10%
8,CCc1c(CN2CCN(CC)CC2)csc1C,0.401%
9,Fc1cccc(Cl)c1CN1CCC(N2CCCCC2)CC1,1.9%
10,COc1ccccc1-c1c(C)nn2c(Cl)cc(C)nc12,1.42%
11,CCOC(=O)c1c(NC(=O)CNC(C)(C)C)sc2c1CCC(C)C2 (stereo not shown),3.32%
12,COCCCNC1CCC(c2ccccc2)CC1 (stereo not shown),-3.27%
13,CCCc1c(C)c(C#N)c2nc3ccccc3n2c1NCCCn1ccnc1,3.93%
14,CCC(C)NC(=O)c1cc(-c2ccc(OC)c(OC)c2)on1 (stereo not shown),-5.09%
15,C/N=c1\c(NS(=O)(=O)c2ccc(C3CCCCC3)cc2)c(O)oc2ccccc12,-1.14%
16,Cc1cc2c(cc3c(SCC(=O)NCc4ccco4)nncn32)o1,-1.97%
17,Cc1cccc(CCNc2ncnc3c2nc2n3CCCCC2)c1,0.745%
18,COc1ccc(CNC(=O)C2CC(=O)N(c3ccc(OCC(=O)N4CCCC4)cc3)C2)cc1 (stereo not shown),-2.83%
19,Cc1ccc(C(C)C)c(OCC(=O)Nc2cccc(C(F)(F)F)c2)c1,1.48%
20,COCCNC(=O)C1CCCN(c2nnc(-n3c(C)ccc3C)s2)C1 (stereo not shown),-4.15%
21,CCOC(=O)c1c(S(=O)(=O)N(CC(C)C)CC(C)C)c(C)n(C)c1C,-3.56%
22,CCCOc1ccc(C2c3c(oc4ccc(F)cc4c3=O)C(=O)N2c2nc(C)c(C)s2)cc1 (stereo not shown),-3.13%
23,Cc1ccc2oc(C(=O)N3CCN(C(c4ccccc4)c4ccccc4)CC3)cc(=O)c2c1,-1.47%
24,Cc1oc2ccc(O)c(CN3CCCC3)c2c1C(=O)OCCc1ccccc1,-4.82%
25,O=C(Nc1ccccc1Br)c1cccc(Br)c1,-3.13%

row,Compound,% Inhibition @ 10 uM
1,COc1cc(CN(CC2CCCO2)C(=O)c2ccc(C)cc2)cc(OC)c1OC (stereo not shown),0.758%
2,CCCCCCCCOc1ccc(/C=C(\C#N)c2nc(-c3ccc(Cl)c(Cl)c3)cs2)cc1,-4.87%
3,Cc1ccc([C@H]2NCC[C@@]3(O)CCCC[C@H]23)cc1,0.878%
4,COc1ccc(C(=O)n2c(=O)oc3cc(Br)ccc32)cc1,-2.88%
5,O=C(Nc1nc2ccccc2n1CCN1CCCCC1)c1ccccc1,0.162%
6,CCOC(=O)Nc1ccc2c(c1)N(C(=O)C(C)N1CCCC1)c1ccccc1CC2 (stereo not shown),-2.47%
7,COc1cc(NC(=O)Cn2ncc3c(C)n(Cc4ccc(F)cc4)c(C)c3c2=O)ncn1,1.22%
8,Nc1nc(-c2sc3nc4c(cc3c2N)CCC4)nc(N2CCOCC2)n1,-3.46% and 0.331%
9,C[C@@H](C[C@H](NC(=O)c1cc2c(-c3ccccc3)nn(C)c2s1)C(=O)NCC#N)c1ccccc1,-3.14%
10,O=C(Cn1nc(-c2ccc(Cl)cc2)c2ccccc2c1=O)NCc1cccnc1,2.95%
11,CCOc1cccc2sc(N(CCN(C)C)C(=O)C3CCCCC3)nc12,-4.44%
12,O=C1c2cccc3cccc(c23)C(=O)N1CC1CCN(S(=O)(=O)c2ccccc2)CC1,4.12%
13,CCC1CCc2c(sc(NC(=O)c3cccnc3)c2C#N)C1 (stereo not shown),-1.06%
14,CCc1ccccc1NC(=O)CN(c1ccc(OC)cc1)S(C)(=O)=O,3.17%
15,Cc1c2cnn(CC(=O)NCCCN3CCCC3=O)c(=O)c2c(C)n1Cc1ccccc1,-5.81%
16,COc1ccccc1C(=O)N(CCN(C)C)c1nc2cc(C)cc(C)c2s1,-0.0871%
17,c1ccc(OCCn2cnc3ccccc32)cc1,3.44%
18,Cc1ccc(S(=O)(=O)N2CCN(C)CC2)cc1C,-3.14%
19,CN1CCN(C(=O)CSc2nc3ccc(NC(=O)c4ccc(F)cc4)cc3s2)CC1,2.01%
20,COC(=O)c1ccc(-n2nnnc2SCC(=O)c2ccc(O)c(O)c2)cc1,-7.46%
21,CCOC(=O)c1sc(C)c(C(=O)NC2CCCCC2)c1N,2.65%
22,COc1ccc2occ(CC(=O)Nc3sc4c(c3C(N)=O)CCCC4)c2c1,-4.91%
23,CC[C@H](C)[C@H](NC(=O)OCc1ccccc1)C(=O)Nc1cccc(NS(=O)(=O)c2ccc3c(c2)oc2ccccc23)c1,-12.9%
24,O=S(=O)(c1ccccc1)c1nnn2c1nc(NC1CCCCCCC1)c1ccccc12,17.5%
25,Cc1ccsc1-c1ncnn1-c1ccccc1,3.05%

row,Compound,% Inhibition @ 10 uM
1,CCCc1cc2c(-c3ccccc3)cc(=O)oc2cc1O,3.06%
2,C=CCSc1nc(-c2ccccc2)cc(-c2ccc(OC)cc2)c1C#N,-0.216%
3,COc1ccc2nc(C)c(C/C=C(/C)Cl)c(S)c2c1,-3.77%
4,O=C(ON1C(=O)c2ccccc2C1=O)c1ccc(F)cc1,1.84%
5,CC(C)S(=O)(=O)C1=NSC2=NC(=O)/C(=C\c3ccc(SCc4ccccc4)o3)C(=N)N21,-3.45%
6,COc1ccc(C(=O)Nc2ccc(OC)c(OC)c2)cc1,-4.15%
7,CC1=C(C(=O)N2CCOCC2)C(c2ccc3c(c2)OCO3)C2=C(O)CCCC2=N1 (stereo not shown),6.48%
8,Fc1ccc(N2CCN(Cc3ccsc3)CC2)cc1,3.01%
9,COc1ccc(NC(=O)C2CCCN2C(=O)OC(C)(C)C)cc1 (stereo not shown),6.77%
10,O=C(O)C1(c2ccccc2)CCC(O)C1 (stereo not shown),1.4%
11,N#CC1=C(N)Oc2c(c(O)nc3ccccc23)C1c1ccccc1 (stereo not shown),-2.21%
12,COc1cc(NC(=O)c2cnn(C)c2)c(OC)cc1Cl,2.65%
13,O=C(Nc1c2c(nn1-c1ccc(F)cc1)CSC2)c1ccc(S(=O)(=O)N2CCOCC2)cc1,-1.43%
14,C=CCn1c(SCC(N)=O)nc2sc3c(c2c1=O)CC(C)(C)OC3,-5.14%
15,CCN1CCCC1CNC(=O)C1CCN(c2nnc(N3CCCC3=O)s2)CC1 (stereo not shown),-2.85%
16,Cn1cc(CCC(=O)NCCCN2CCC(N3CCCCC3)CC2)c2ccccc21,-0.822%
17,CS(=O)(=O)CC[C@@H](C(=O)NCc1ccc(F)cc1)N1Cc2ccccc2C1=O,2.93%
18,OC1(c2ccc(Br)cc2)CCN(Cc2ccc(Br)cc2)CC1,-2.95%
19,Cc1nnc2sc(-c3ccccc3Cl)nn12,-6.56%
20,CC(C)(C)c1cc(C(=O)Nc2ccccc2C(=O)O)cc(C(C)(C)C)c1,-1.45%
21,COc1ccccc1C1=N/C(=C\c2ccc(F)cc2)C(=O)O1,6.86%
22,COc1ccc(S(=O)(=O)NCc2ccc(C(=O)NCCCOC(C)C)cc2)cc1,-3.35%
23,O=C(/N=C1\SC2CS(=O)(=O)CC2N1c1ccc(Br)cc1)c1ccccc1 (stereo not shown),-1.02%
24,COc1ccc(S(=O)(=O)Nc2nc3ccccc3s2)cc1,-2.07%
25,Cc1cc(NC(=O)CSc2nc3c(sc4ccccc43)c(=O)n2CCCN2CCOCC2)[nH]n1,6.65%
